# Out of some 73,000 compounds screened, about 1,800 (2.5%) were called active. This list was built around the results that the source calls inconclusive (neither active nor inactive); the mix of calls is not that of the screen. The call rests on the fitted dose curve; in most records, active means well fitted activation curve with a large enough effect; inconclusive means small, poorly fitted or top-dose-only effect; inactive means no such curve, though single readings can be large or run the other way. No potency is given beside an inconclusive call; the fits are too rough.
# Assay: qHTS Assay for Agonists of the Thyroid Stimulating Hormone Receptor: Activators of Intracellular cAMP Concentrations in Parental HEK 293; further: nearly all actives have a fitted effect of over 55% in size; on activation: % of control where 0% means no effect
# Details: parental HEK293 CNG cAMP sensor, membrane potential fluorescence; activation: at 57.1 µM (top of the series) unless noted
# In short: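 Parental HEK 293 cells stably expressing a cAMP-gated CNG channel were loaded with membrane potential dye containing 100 uM RO 20-1724 for 60 min. Compound added for 30 min; depolarization read as fluorescence intensity at 590 nm.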
# Potency means the concentration at half of the fitted maximal effect; tags describe the fitted curve by direction and shape.
Structure (SMILES),Potency,activation
CCOC(=O)Cc1csc(NC(=O)c2csc(C)c2)n1,"inconclusive [activator, single point]",–
N#Cc1cc2nc(O)c(O)nc2cc1[N+](=O)[O-],inactive,–
CN(C)C(N)=NCCC[C@H](N)C(=O)O,"inconclusive [activator, partial curve]",–
Cc1c(OCC(=O)OC(C)C)ccc2c3c(c(=O)oc12)CCC3,"inconclusive [activator, single point]",–
Cc1ccc(-n2c(C)nc3c(cnn3-c3ccc(F)cc3)c2=O)cc1,"inconclusive [activator, partial curve]",–
COC(=O)[C@H](NC(=O)c1cc(-c2ccccc2)nc2ccccc12)c1ccccc1,active: 12.6 µM,–
Cc1ccc2c(CC(=O)Nc3nc(C)cs3)coc2c1,"inconclusive [activator, partial curve]",–
COc1ccccc1-n1cc(C(=O)NCC(=O)N2CCN(c3ccccn3)CC2)c2ccccc2c1=O,–,inactive: -0.719%
CCOc1ccc(-c2nnn(CC(=O)NCc3ccc(F)cc3)n2)cc1OCC,"inconclusive [activator, single point]",–
COC(=O)C(NC=O)C(O)(Cc1ccccc1)C(F)(F)F (stereo unspecified),"inconclusive [activator, single point]",–
COc1ccc(-c2csc(N(CC3CCCO3)C(=O)c3ccco3)n2)cc1 (stereo unspecified),active: 20 µM,–
CCCCN(C(=O)CNC(=O)c1ccco1)C(C(=O)NC1CCCCC1)c1ccc(OC)cc1OC (stereo unspecified),"inconclusive [activator, partial curve]",–
Fc1ccccc1N1CCN(c2nc3ccccc3n3nnnc23)CC1,"inconclusive [activator, single point]",–
CCOc1ccc(C2C=C(c3ccccc3)Nc3nnnn32)cc1 (stereo unspecified),"inconclusive [activator, partial curve]",–
Cc1noc(C)c1CSCC(=O)N1CCN(c2ccc(F)cc2)CC1,"inconclusive [activator, single point]",–
COc1cc(C2c3[nH]c4ccccc4c3CC3C(=O)N4C(Cc5c([nH]c6ccccc56)C4c4cc(OC)c(OC)c(OC)c4)C(=O)N32)cc(OC)c1OC (stereo unspecified),–,inactive: -3.15% [at 11.4 µM]
Nn1c(Nc2ccccc2)nc2ccccc21,–,inactive: -1.27%
O=C(CCN1C(=O)C2CC=CCC2C1=O)N1CCN(c2ccccn2)CC1 (stereo unspecified),–,inactive: 0.262%
CN1CCN(Cc2nc3c(c(=O)[nH]c(=O)n3C)n2Cc2c(F)cccc2Cl)CC1,–,inactive: 13.1%
O=C(CSc1nnc(-c2ccccc2Cl)n1Cc1ccco1)Nc1ccc2c(c1)OCCO2,"inconclusive [activator, single point]",–
O=C(Nc1ccc2c(c1)CCC2)C1CCCN(c2ncccn2)C1 (stereo unspecified),"inconclusive [activator, single point]",–
Cc1oc(CC(C)C)c(CN2CCCC2)c1C(=O)O,"inconclusive [activator, single point]",–

Structure (SMILES),Potency,activation
CNC1=C(Br)C(=O)c2ccncc2C1=O,"inconclusive [activator, single point]",–
O=C(COc1ccc2oc3c(c2c1)CCCC3)Nc1ccccn1,"inconclusive [activator, partial curve]",–
Cc1ccc2nc(-c3ccccc3Cl)cc(C(=O)Nc3cc(C)on3)c2c1,"inconclusive [activator, partial curve]",–
CCn1c(=N)c(C(=O)OC)cc2c(=O)n3ccccc3nc21,"inconclusive [activator, single point]",–
COc1ccc(C(C#N)N2CCCCC2)cc1OC (stereo unspecified),"inconclusive [activator, single point]",–
Cc1ccccc1Cn1c(CN2CCc3ccccc3C2)nc2c1c(=O)n(C)c(=O)n2C,"inconclusive [activator, single point]",–
CCOC(=O)Cn1c(CN(C)Cc2ccccc2)nc2c1c(=O)n(C)c(=O)n2C,"inconclusive [activator, partial curve]",–
COC(=O)[C@@]1(Cc2ccc(OC)cc2)[C@H]2c3cc(C(=O)N4CCCC4)n(Cc4ccc(C(F)(F)F)nc4)c3C[C@H]2CN1C(=O)c1ccccc1,"inconclusive [activator, full curve]",–
COc1ccc(/C=N/n2c(SC)nnc2-c2ccccc2)c(OC)c1OC,"inconclusive [activator, partial curve]",–
O=C(O)c1cc2ccccc2c(Cc2cc3ccccc3c(C(=O)O)c2O)c1O (tested in a mixture with another compound),–,inactive: 6.39% [at 25.6 µM]
CCn1c(SCC(=O)N2c3ccccc3Sc3ccccc32)nc2c1c(=O)n(C)c(=O)n2C,–,inactive: 7.35%
CC1(C)C(C=C(Cl)Cl)C1C(=O)N1CCN(c2ccccc2)CC1 (stereo unspecified),"inconclusive [activator, single point]",–
CCn1c(SCC(=O)Nc2cc(OC)ccc2OC)nnc1C1CCCCC1,"inconclusive [activator, partial curve]",–
CC1CCCN(Cc2nc3c(c(=O)n(C)c(=O)n3C)n2CCCc2ccccc2)C1 (stereo unspecified),"inconclusive [activator, partial curve]",–
O=C1CC(c2ccccc2)n2nc(NC(=O)c3cccs3)nc2N1 (stereo unspecified),"inconclusive [activator, single point]",–
O=C(C1CCN(S(=O)(=O)c2cnc[nH]2)CC1)N1CCN(c2ncccn2)CC1,"inconclusive [activator, single point]",–
O=S(=O)(Nc1ccc2c(c1)OCCO2)c1ccc2oc3ccccc3c2c1,"inconclusive [activator, single point]",–
Cc1ccc(C)c(-n2c(Cc3cc(=O)[nH]c(=O)[nH]3)nnc2SCC(=O)NCc2ccco2)c1,–,inactive: -1.07%
CC1CCN(c2ccc(C(=O)NCCc3ccccc3)cn2)CC1,"inconclusive [activator, partial curve]",–
COc1cc(-c2nnc(SCc3ccccc3Cl)o2)cc(OC)c1OC,"inconclusive [activator, single point]",–
Cc1ccc2cc(CCNC(=O)CC(C)(C)C)c(=O)[nH]c2c1C,"inconclusive [activator, partial curve]",–
O=c1[nH]c(C2CCCN(S(=O)(=O)c3ccc(F)cc3)C2)nc2c1nnn2Cc1ccccc1 (stereo unspecified),"inconclusive [activator, single point]",–

Structure (SMILES),Potency,activation
CCN(CC)CCn1c(SCC(=O)NCc2ccco2)nc2c(sc3ccccc32)c1=O,"inconclusive [activator, single point]",–
COCCn1c(C)cc(C(=O)COC(=O)C23CC4CC(CC(O)(C4)C2)C3)c1C,–,inactive: -6.92%
O=S(=O)(c1ccccc1)N1CCC2(CCCN(c3ccccc3)C2)CC1,active: 25.1 µM,–
O=c1cnc2cnc(Nc3ccccc3)nc2n1Cc1ccc(F)cc1,"inconclusive [activator, partial curve]",–
CC(C)(C)N1C(=O)[C@@H]2[C@H]3C(=CC[C@H]2C1=O)C(=O)[C@H]1O[C@H]1[C@H]3O,–,inactive: 8.35% [at 11.4 µM]
CCOC(=O)C1=C(C)N(CCO)C(=O)NC1c1ccccc1 (stereo unspecified),"inconclusive [activator, single point]",–
COC(=O)c1sccc1NC(=O)CN1CCN(c2ccc(F)cc2)CC1,"inconclusive [activator, single point]",–
Cc1ccc(OCC(=O)Nc2ccc3c(c2)nc(CCN2CCOCC2)n3C)cc1,active: 25.1 µM,–
COCC(=O)NC(c1ccccc1)c1ccccc1,"inconclusive [activator, single point]",–
COC(=O)c1cccc(NC(=O)Cc2coc3cc(OC)ccc23)c1,"inconclusive [activator, partial curve, poor fit]",–
O=C(CCCCCn1c(SCC(=O)c2ccccc2)nc2ccccc2c1=O)NCc1ccco1,"inconclusive [activator, single point]",–
O=c1c2ccccc2n(Cc2ccc(F)cc2)c(=O)n1C1CCCC1,"inconclusive [activator, single point]",–
CCCC(=O)c1c(C)c2ccccc2n1C,"inconclusive [activator, single point]",–
COc1cccc(-c2nn(C)c3sc(C(=O)NCc4ccc5c(c4)OCO5)cc23)c1,–,inactive: 15.7%
Cc1cc(C)n2nc(SCc3cc(=O)n4c(C)cccc4n3)nc2n1,–,inactive: 14.6%
COc1ccc(-c2cc(C(F)(F)F)nc(N3CCOCC3)n2)cc1OC,"inconclusive [activator, single point]",–
COc1ccc(-n2ccnc2SCC(=O)Nc2ccc(OC)cc2OC)cc1,"inconclusive [activator, single point]",–
COc1ccccc1-n1nnnc1SCc1cc2c(cc1Br)OCO2,"inconclusive [activator, partial curve]",–
O=c1c(-c2cc(F)cc(F)c2)nc2cnc(N3CCOCC3)nc2n1-c1ccccc1,"inconclusive [activator, single point]",–
Fc1c(F)c(F)c(CSc2nc3ccccc3[nH]2)c(F)c1F,"inconclusive [activator, partial curve]",–
Cc1ccc(N(CC(=O)NCc2ccco2)S(=O)(=O)c2ccccc2)cc1,"inconclusive [activator, single point]",–
COC(=O)c1c(NC(=O)Cc2cccs2)sc(C)c1C,"inconclusive [activator, partial curve]",–
